Measured values reported in PubChem BioAssay AID493208 (National Center for Advancing Translational Sciences (NCATS), 2011).
About 340 (0.77%) of roughly 44,000 compounds were called active. Roughly 5% stayed inconclusive and do not appear here. Calls come from the whole dose curve; as a rule, active = well fitted inhibition curve with a large enough effect; inconclusive = small, poorly fitted or top-dose-only effect; inactive = flat fitted curve, though single readings scatter. This is one part of the list.

Test: Acumen qHTS Assay for Inhibitors of the mTORC1 Signaling Pathway in MEF (Tsc2-/-, p53-/-) Cells: Sytravon;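 note: plate controls were DMSO for no effect and rapamycin for full effect; nearly all actives have a fitted effect of over 50% in size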
Details: phospho-rpS6 immunofluorescence/PI, 24 h; series mostly up to 38.3 µM; activity change, negative = inhibition: at the top concentration
Outline: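 Tsc2-/-, p53-/- MEFs (empty-vector stable line) in DMEM + 10% FBS were treated with compounds 24 h at 37 degree Celsius, fixed, and immunostained for phospho-rpS6 (Alexa-488) with propidium iodide counterstain. Laser-scanning cytometry gave % positive cells, normalized against 7.5 nM rapamycin and DMSO.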

Activity change, negative = inhibition, inactive:
CCn1nnc2cc(C(=O)Nc3ccc(C)c(Cl)c3)ccc21 -21.6%, Cc1c(C(=O)N2CCC(C)CC2)c(S(=O)(=O)Nc2cccc(C(F)(F)F)c2)c(C)n1C 0%, CCOC(=O)c1c(NC(=O)COc2ccc(C)cc2C(C)(C)C)sc2c1CCC(C)C2 (configuration not stated) -1.63%, CC(=O)c1ccc(N2CCN(S(=O)(=O)c3cc(-c4noc(C)n4)ccc3C)CC2)cc1 -25.2%, Cc1ccc(Cn2c(CNC(=O)Cc3cccc(C)c3)nc3cccnc32)cc1 1.57%, COc1ccc(CNC(=O)Cn2c(=O)ccc3cc(S(=O)(=O)N4CCCC4)ccc32)cc1 0.107%, Cc1nn(S(=O)(=O)c2ccc(C(C)(C)C)cc2)c(C)c1S(=O)(=O)N1CCC(C)CC1 1.55%, COc1ccc2[nH]cc(CCNC(=O)c3cnn(-c4ccc(C)cc4)c3C3CCN(C(=O)OC(C)(C)C)CC3)c2c1 -4.79%, CC(=O)Nc1ccc(NC(=O)C2(c3cccs3)CCOCC2)cc1 -1.44%, COCCN1C(=O)c2oc3ccc(C)cc3c(=O)c2C12C(=O)N(C)c1ccccc12 (configuration not stated) -1.47%, COC(=O)c1cc2oc3ccccc3c2n1Cc1nc(-c2cccc(C)c2)oc1C 7.08%, CC(C)N(Cc1ccccc1)C(=O)C1CCCN(c2ncnc3onc(-c4ccc(F)cc4)c23)C1 (configuration not stated) -3.84%, COCC(=O)Nc1cccc(-c2nc3cccnc3s2)c1 -16.6%, COc1ccccc1CNC(=O)c1cnc(SC)nc1C -15.3%, Cc1cc2n(n1)CCC(=O)N2Cc1ccc(C(=O)Nc2ccc(F)cc2F)cc1 -18.5%, CCOC(=O)c1ccc(N2C(=O)c3[nH]nc(-c4ccc(OCC)cc4)c3C2c2cccs2)cc1 (configuration not stated) -7.62%, CCOC(=O)c1ccc(NC(=O)CC2Nc3ccccc3NC2=O)cc1 (configuration not stated) -10%, Cc1cc(-c2ccc(S(=O)(=O)N3CCN(c4ccc(Cl)cc4)CC3)s2)on1 -1.99%, COc1ccc(-c2nc3scc(CCNC(=O)c4cccc(Br)c4)n3n2)cc1 0.825%, COc1ccc(NC(=O)c2sc3nc4c(c(-c5ccc(OC)cc5)c3c2N)C(=O)CC(C)(C)C4)cc1 2.35%, O=C(Nc1cc(-c2nc3cc(Cl)ccc3o2)ccc1Cl)c1cc([N+](=O)[O-])ccc1N1CCOCC1 3.19%, Cc1ccc(CNCc2cccn2-c2nnc(N3CCCC3)s2)cc1 -4.23%, O=C(c1ccccc1Cl)N1CCCCC1CCN1CCOCC1 (configuration not stated) 1.66%, CCOc1cccc2c1Oc1nc(-c3ccccc3)nc(SCC(=O)Nc3ccc(F)cc3)c1C2 1.86%, Clc1ccccc1-c1nnc(SCc2nc(-c3ccccc3)no2)n1-c1ccccc1 -14.9%, O=C(NCCc1ccc(Cl)cc1)c1ccc(CSCc2ccc(Cl)cc2)o1 8.11%, CCCC(=O)n1nc(-c2cccnc2)nc1NCc1ccccc1 4.53%, CCc1ccccc1NC(=O)Cn1c(=O)n(CCc2ccccc2)c(=O)c2ccccc21 -5.4%, COc1ccc(N2CCN(C(=O)Nc3ccccc3Cl)CC2)cc1 -6.99%, COc1ccc(Cn2c(CCC(=O)Nc3ccc(OC)c(Cl)c3)nc3cccnc32)cc1 -14.6%, COc1ccc(NS(=O)(=O)c2c(C)nc3scc(C)n3c2=O)cc1 -17.7%, O=C(Nc1ccc2nc(SCC(=O)N3CCOCC3)sc2c1)c1cccc(F)c1 -0.298%, CCCCNC(=O)CCSc1nc(-c2ccc3c(c2)OCO3)cc(C(F)(F)F)n1 0.747%, CCOC(=O)N1CCN(S(=O)(=O)N2CCCC(C(=O)NCc3ccc(OC)cc3OC)C2)CC1 (configuration not stated) 15.2%, O=c1oc2ccc(Cl)cc2cc1-c1cn2c(n1)sc1ccccc12 -7.43%, COc1cccc(NC(=O)CSC2=Nc3ccccc3C3=NC(CC(=O)NCc4ccccc4OC)C(=O)N23)c1 (configuration not stated) -1.02%, COC(=O)c1scc(-c2ccccc2)c1S(=O)(=O)Nc1ccc(C)c(Cl)c1 -0.557%, CCOc1ccc(NC(=O)c2c(NCc3cccs3)sc3c2CCCCC3)cc1 -2.71%, COc1ccc(C2C=C(c3ccccc3)Nc3nc(NC(=O)/C=C/c4ccccc4OC)nn32)cc1 (configuration not stated) -0.343%, Cc1ccnc2nc(NC(=O)c3ccccc3Cl)nn12 -1.35%, Cc1cccc(N(CC(=O)N(C)Cc2ccccc2)S(=O)(=O)c2ccccc2)c1C -3.79%, CCC(=O)N1CCc2cc(Br)cc(S(=O)(=O)N3CCCC(C(=O)Nc4ccc(OC)cc4OC)C3)c21 (configuration not stated) -0.804%, CCc1ccc(S(=O)(=O)c2nnn3c2nc(NC(C)C)c2cc(Cl)ccc23)cc1 -4.43%, CC12CN3CC(c4ccccc4)(CN(C1)C3c1ccc(Cl)cc1)C2=O (configuration not stated) -3.3%, CC(=O)c1cc(-c2ccccc2)n(CCC(=O)NC2CCCCC2)c1C -0.691%, COc1ccccc1CNC(=O)c1ccc(CS(=O)c2ccccc2Cl)o1 (configuration not stated) -3.37%, COc1ccc(NC(=O)C(=O)NCc2ccco2)c(OC)c1 7.08%, COc1ccc(N2CCN(c3oc(/C=C/c4ccccc4OC)nc3C#N)CC2)cc1 2.66%, CC(C)Oc1ccc(CNC(=O)c2cccc(NC(=O)c3nsc4ccccc34)c2)cc1 -8.76%, Cc1cc(C)cc(NC(=O)N2CCC(N3CCN(Cc4ccccc4)C(=O)C3=O)CC2)c1 -3.16%, O=C(Nc1ccc(C(=O)OCc2cc(=O)n3ccsc3n2)cc1)c1cccc(F)c1 28.5%, COc1ccc(Nc2c3c(nc4ccc(NC(=O)c5cc(Cl)ccc5OC)cc24)CCCC3)cc1OC 0.308%, CCOc1ccc(CC(=O)Nc2c(C(=O)c3ccc(F)cc3)oc3ccc(Cl)cc23)cc1OCC 8.52%, COc1ccc(OC)c(CNC(=O)C2CCN(S(=O)(=O)c3ccc4[nH]c(=O)oc4c3)CC2)c1 3.92%, Cc1ccc(CNC(=O)c2c[nH]n3c(=O)c(Cc4ccc(F)cc4Cl)c(C)nc23)cc1 -20.5%, Cc1nnc(N2CCN(c3cccc(C(F)(F)F)c3)CC2)c2c1nnn2Cc1ccccc1 2.76%, Cn1c(C(=O)N2CCC(C(=O)N3CCN(c4ccccc4)CC3)CC2)cc2sccc21 -4.32%, COc1ccc(N2Cc3cccc(C(=O)Nc4cccc(F)c4)c3C2=O)cc1 -13.2%, Cc1noc2ncnc(NCc3ccc(Cl)cc3)c12 -10.6%, Cc1cc(NC(=O)C2CCCN(S(=O)(=O)c3cn(C)cn3)C2)ccc1Br (configuration not stated) 0%, Cc1ccc(-c2cc(NC(=O)C(C)Oc3ccccc3F)on2)cc1 (configuration not stated) -16.2%, CN(C)c1ccc(C(=O)Nc2ccc(-c3nc4ccccc4o3)cc2)cc1 4.15%, CCOC(=O)c1ccc(N2C(=O)c3n[nH]c(-c4cccs4)c3C2c2ccc(OC)cc2OC)cc1 (configuration not stated) -8.08%, Cc1ccc(NC(=O)c2ccc(N(Cc3ccccc3)S(C)(=O)=O)cc2)cc1 0.186%, CC(C)c1ccc(C2=NC(c3ccncc3)=Nc3ccc(F)cc3N2)cc1 -15.4%, O=C(Nc1nc2c(s1)CCCC2)c1ccccc1F -14.6%, CCOC(=O)c1c(S(=O)(=O)N2CCN(c3cccc(C(F)(F)F)c3)CC2)c(C)n(C)c1C 0.561%, CCCn1cc(S(=O)(=O)c2ccc(CC)cc2)c(=O)c2cc(F)c(N3CCN(C)CC3)cc21 -7.88%, CCOc1ccc(Cn2c(CNS(=O)(=O)c3ccc(CC)cc3)nc3cccnc32)cc1 0.307%, COc1ccc(OC)c(CCNC(=O)c2nn(C)c3c2CSc2ccccc2-3)c1 2.34%, CNC(=O)c1ccc2nc(Cc3ccccc3)oc2c1 -7.59%, CCC1CCc2c(sc(NC(=O)C3c4ccccc4Oc4ccccc43)c2C(=O)OC)C1 (configuration not stated) -16.3%, CC(C)c1ccc2oc(-c3ccc(Cl)c(NC(=O)Cc4ccccc4)c3)nc2c1 -26%, CCOC(=O)N1CCC(NC(=O)c2ccc3c(c2)N(Cc2ccc(Cl)cc2)C(=O)c2ccccc2S3(=O)=O)CC1 5.04%, Cc1ccc(C(=O)c2oc3ccccc3c2NC(=O)C(C)Oc2ccccc2Cl)cc1 (configuration not stated) -1.02%, Cc1cc(Br)ccc1NC(=O)CCNS(=O)(=O)c1cccc2nonc12 -13.1%, COc1ccc(NC(=O)c2c(NCc3cccs3)sc3c2CCCCC3)c(OC)c1 -9.98%, O=C(Nc1ccc(Br)cc1F)c1cc2nc(-c3ccco3)cc(C(F)(F)Cl)n2n1 1.2%, CCOc1ccc(OCC)c(Nc2nc3ccc(C(=O)c4ccccc4)cc3n3cnnc23)c1 -5.78%, O=S(=O)(c1ccc(OC(F)(F)F)cc1)N1CCC(c2nc3ccccc3s2)CC1 2.61%, COc1ccc2c(c1)CC(C(=O)Nc1ccc(OC)cc1OC)CO2 (configuration not stated) -18.6%, O=C(Cn1cc(SCc2ccccc2F)c2ccccc21)N1CCCC1 -3.69%, CCC(=O)Nc1ccccc1-c1nc2ccccc2n(CC(=O)Nc2ccc(C)c(C)c2)c1=O -4.89%, CCc1ccc(NC(=O)C2CCN(S(=O)(=O)c3c(C)noc3C)CC2)cc1 1.76%, Cn1c(=O)c2cc(C(=O)Nc3cccc(C#N)c3)sc2c2ccccc21 1.22%, COc1ccc(C2=NN(CC(=O)NCCc3ccccc3)C(=O)CC2)cc1 -4.01%, COC(=O)c1ccc(NC(=O)NC(C)c2c(-n3cccc3)sc(C)c2C)cc1 (configuration not stated) -17.2%, O=C(NC1CCCC1)c1ccc(CSc2nc3cccnc3n2Cc2ccccc2)cc1 -1.35%, COc1ccc(CCNC(=O)CSCc2nc(-c3cccc(C)c3)oc2C)cc1OC -13.6%, O=C(NCc1ccccc1)c1ccc2c(c1)N(Cc1ccc(F)cc1)CCS2 -0.948%, COc1ccc(Cl)cc1NC(=O)c1sc2nc(-c3ccc(OC)c(OC)c3)ccc2c1N -2.88%, COC(=O)c1sc2cccc(F)c2c1S(=O)(=O)Nc1cc(C)c(Cl)cc1OC 0%, O=C(COc1ccc(Cl)cc1)Nc1ccc(-c2nc3cc(Cl)ccc3o2)c(O)c1 3.89%, CCCNC(=O)C1CCC(Cn2c(=O)c3sccc3n(CC(=O)N3CCCC3)c2=O)CC1 (configuration not stated) 0.474%, CCc1cccc(C)c1NC(=O)CN1C(=O)c2ccccc2Sc2ncccc21 -1.89%, COc1ccc(CNC(=O)c2cc3oc4ccccc4c3n2C)cc1OC -4.14%, CCCNC(=O)CN1C(=O)c2c(c3ccccc3n2C)C1c1ccc(OC)cc1 (configuration not stated) -2.61%
